Data reported in PubChem BioAssay AID485294 (National Center for Advancing Translational Sciences (NCATS), 2010).
Out of some 370,000 compounds screened, about 150 (0.041%) were called active. Inconclusive means that the source gave no clear call. Such entries were picked first, then a sample of the others. Calls come from the whole dose curve; as a rule, active = well fitted inhibition curve with a large enough effect; inconclusive = small, poorly fitted or top-dose-only effect; inactive = flat fitted curve, though single readings scatter. No potency is given beside an inconclusive call; the fits are too rough.

Molecular target: Beta-lactamase (Escherichia coli (strain K12)) (UniProt P00811)
UniProt P00811, sequence (P00811 whole entry, looked up): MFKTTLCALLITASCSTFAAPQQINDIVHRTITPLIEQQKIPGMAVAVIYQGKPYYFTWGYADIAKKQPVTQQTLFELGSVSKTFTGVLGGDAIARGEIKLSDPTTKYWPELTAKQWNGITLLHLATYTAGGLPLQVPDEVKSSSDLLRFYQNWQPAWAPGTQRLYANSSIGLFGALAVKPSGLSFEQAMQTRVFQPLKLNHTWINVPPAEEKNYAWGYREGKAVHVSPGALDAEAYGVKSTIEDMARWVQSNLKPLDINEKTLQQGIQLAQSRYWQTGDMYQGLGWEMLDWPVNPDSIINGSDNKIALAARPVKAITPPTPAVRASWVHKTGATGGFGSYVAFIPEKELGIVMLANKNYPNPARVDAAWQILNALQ
Experiment: qHTS Inhibitors of AmpC Beta-Lactamase (assay with detergent); note: nearly all actives have a fitted effect of over 25% in size;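 for activity change, negative = inhibition: 0% = no-compound wells and -100% = no-enzyme wells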
Details: AmpC hydrolysis of nitrocefin, absorbance 480 nm, 0.01% Triton; activity change, negative = inhibition: at 114 µM (top of the series)
How it was run: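 AmpC (5.3 nM in the dispensed reagent) in 20 mM phosphate pH 7.0 with 0.01% (detergent screen) or 0.0001% Triton X-100 was preincubated with compounds for 15 min at room temperature. Nitrocefin was then added from an 800 uM solution, and hydrolysis was followed at 480 nm.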
Potency is the fitted concentration of half-maximal effect; tags give direction and shape of the fitted curve.

SMILES	activity change, negative = inhibition	Potency
CCN(CC)CCCNC(=O)c1c2c(nc3ccccc13)C(=O)N(C1CCCCC1)C2	inactive: 0.199%	–
CCCCOP(=O)(c1ccc(N(C)C)cc1)C(O)c1ccccc1F (configuration not stated)	–	inconclusive [inhibitor, full curve]
CC(C)(C)C1CCc2c(C(=O)NNC(=O)CCC(=O)O)csc2C1 (configuration not stated)	–	inconclusive [inhibitor, partial curve, poor fit]
CC(=O)Nc1cc(NC(C)=O)cc(C(=O)OCC(=O)N2CC(C)OC(C)C2)c1 (configuration not stated)	–	inconclusive [inhibitor, full curve, poor fit]
CCOc1ccc(-c2nnn(CC(=O)c3ccc4c(c3)OCCO4)n2)cc1OCC	–	inconclusive [inhibitor, full curve]
CCC1(c2ccccc2)NC(=S)N(c2ccc(C)c(C)c2)N1 (configuration not stated)	–	inconclusive [inhibitor, single point]
COc1cccc(CNC(=O)Cn2c(=O)cc(C(F)(F)F)c3c(C)nn(C)c32)c1OC	inactive: 18.7%	–
CNS(=O)(=O)c1cccc(C(=O)OCC(=O)c2ccc[nH]2)c1	–	inconclusive [inhibitor, full curve, poor fit]
Cc1cccc([N+](=O)[O-])c1	inactive: 0.674%	–
Cc1ccc(S(=O)(=O)c2cn(CC(=O)Nc3ccccc3)c3ccc(F)cc3c2=O)cc1	–	inconclusive [inhibitor, full curve, poor fit]
CCN(CC(=O)Nc1c(F)cccc1F)C(=O)CCc1c[nH]c2ccccc12	–	inconclusive [inhibitor, full curve, poor fit]
Cc1ncoc1C(=O)Nc1cccc(Cl)c1C	–	inconclusive [inhibitor, full curve, poor fit]
CC(=O)Nc1cc(C(=O)N2CCN(C)CC2)ccc1S(=O)(=O)c1ccc(C)cc1	inactive: 1.06%	–
COc1ccc(C(C[N+](=O)[O-])c2c(C)[nH]c3ccccc23)cc1OC (configuration not stated)	inactive: 2.31%	–
CC1=C(C(N)=O)C(c2cccs2)n2nc(-c3cccc(C)c3)nc2N1 (configuration not stated)	inactive: 0.0985%	–
CSc1ccccc1C(=O)Nc1ncn[nH]1	–	inconclusive [inhibitor, partial curve]
Oc1cccc(/C=N/N(Cc2ccccc2)c2ccccc2)c1	inactive: -4.9%	–
CC(C(=O)NCc1ccco1)n1nc(-c2ccccc2)c2cc(Cl)ccc21 (configuration not stated)	–	inconclusive [inhibitor, partial curve, poor fit]
CC(C)c1nn2c(=O)cc(COC(=O)c3cccc(NC(=O)c4ccccc4F)c3)nc2s1	inactive: -8.04%	–
O=C(c1ccc(F)cc1)N1CCN(Cc2ccccc2)CC1	–	inconclusive [inhibitor, full curve, poor fit]
N#CCCn1cc(/C=N/O)c(-c2ccc(F)cc2)n1	–	inconclusive [inhibitor, full curve, poor fit]
CC1CCc2c(sc3nc(-c4cc5ccccc5oc4=O)nc(Cl)c23)C1 (configuration not stated)	inactive: -7.18%	–
O=C(c1ccco1)N1CCN(S(=O)(=O)Cc2ccccc2Cl)CC1	inactive: -10.7%	–
Cc1sc2ccccc2[n+]1CCC(C)S(=O)(=O)[O-] (configuration not stated)	–	inconclusive [inhibitor, partial curve]

SMILES	activity change, negative = inhibition	Potency
CN(C)CCCN(C(=O)COc1ccc(Cl)cc1)c1nc2cc3c(cc2s1)OCO3	–	inconclusive [inhibitor, partial curve]
O=S(=O)(c1cccc2cccnc12)n1cnc2ccccc21	–	inconclusive [inhibitor, full curve, poor fit]
O=C(O)CCCCCN=C1CCc2ccccc2N1	–	inconclusive [inhibitor, single point]
COc1ccc(NC(=O)c2cc(OC)c(OC)c(OC)c2)cn1	–	inconclusive [inhibitor, full curve]
Cc1c(C)c2ccc(OC(C)C(=O)NCCN3CCOCC3)c(C)c2oc1=O (configuration not stated)	–	inconclusive [inhibitor, single point]
O=C(c1ccc(Cn2cc(Br)cn2)o1)n1cccn1	inactive: 2%	–
COc1ccc(-c2nc3ccccc3[nH]2)cc1	inactive: 1.1%	–
O=C(COC(=O)CCC1CCCC1)Nc1ccc(Cl)cc1F	–	inconclusive [inhibitor, full curve]
O=C(NCCN1CCOCC1)C1CCN(c2ncnc3c2sc2cccc(F)c23)CC1	–	inconclusive [inhibitor, full curve]
COc1ccc(CCNC(=O)c2cc(-c3ccccc3)c(N3CCOCC3)s2)c(OC)c1OC	–	inconclusive [inhibitor, full curve, poor fit]
Cc1ccc(C)c(-c2csc(-c3cccnc3)n2)c1	inactive: -9.22%	–
Cc1ccc([N+](=O)[O-])c2c1C(N1CCCCC1)C(C)(C)O2 (configuration not stated)	–	inconclusive [inhibitor, full curve]
COc1ccccc1NC(=O)CSc1nn2c(=O)c(C)nnc2s1	inactive: 6.69%	–
O=C(NCCCN1CCOCC1)c1cc2ccccc2cc1O	–	inconclusive [inhibitor, single point]
CSc1ccc(/C=N/NC(=O)c2cccc(Cl)c2)cc1	–	inconclusive [inhibitor, full curve, poor fit]
Cc1ccccc1-c1nc(CS(=O)CC(=O)NCCCN(C)c2ccccc2)c(C)o1 (configuration not stated)	inactive: -5.19%	–
CCc1noc(C)c1C(=O)Nc1ccc(C)c(S(=O)(=O)N2CCCCCC2)c1	–	inconclusive [inhibitor, partial curve, poor fit]
CC(C)SC1=NC(C)(C)C=C(/C=C/c2c(Cl)cccc2Cl)N1	inactive: 2.02%	–
COC(=O)c1cccc(NC(=O)c2cc3sccc3n2C)c1	inactive: 7.29%	–
O=C(CN1CCN(S(=O)(=O)c2ccc(Cl)s2)CC1)NCc1ccc(Cl)cc1	–	inconclusive [inhibitor, full curve, poor fit]
CNc1ncc(C(=O)c2ccc(-c3ccccc3)cc2)s1	inactive: -5.56%	–
COc1cccc(-c2cc(C(=O)N3CCCCCC3)no2)c1	–	inconclusive [inhibitor, full curve]
Nc1ccc2oc(-c3cccs3)nc2c1	–	inconclusive [inhibitor, partial curve, poor fit]
